This is an account of results in doi:10.1101/2020.10.06.326603 (bioRxiv, 2020).

The target of data set [1] is T1, IscS S10Q, H247P, Q248L variant (E. coli, UniProt P0A6B7 1-404, S10Q | H247P | Q248L).
T1 sequence: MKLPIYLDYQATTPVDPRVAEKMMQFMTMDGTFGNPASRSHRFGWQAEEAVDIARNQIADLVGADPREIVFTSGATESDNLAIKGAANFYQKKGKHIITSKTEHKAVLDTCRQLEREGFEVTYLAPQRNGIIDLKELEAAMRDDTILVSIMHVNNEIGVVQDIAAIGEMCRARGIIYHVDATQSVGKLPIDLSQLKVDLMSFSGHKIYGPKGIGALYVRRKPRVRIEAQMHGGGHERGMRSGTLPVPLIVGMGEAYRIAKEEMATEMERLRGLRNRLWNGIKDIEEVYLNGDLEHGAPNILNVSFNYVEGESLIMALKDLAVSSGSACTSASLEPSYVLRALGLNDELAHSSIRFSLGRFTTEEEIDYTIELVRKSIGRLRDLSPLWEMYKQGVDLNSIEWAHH
Kind of data set: SEC.

Data set [2] deals with the molecule itself. Briefly: cell-based or functional assay.
Data set [3] deals with the molecule itself.
The data set “SEC” concerns the molecule itself. Kind of data set: SEC. On the technique in general: In gel filtration, larger molecules generally elute earlier.

Residue numbers refer to the chain shown, from its start. In names and notes the source's numbering stands.

B1: E. coli scaffold protein IscU (natural protein, UniProt P0ACD4 1-128, looked up)
chain: MAYSEKVIDHYENPRNVGSFDNNDENVGSGMVGAPACGDVMKLQIKVNDEGIIEDARFKTYGCGSAIASSSLVTEWVKGKSLDEAQAIKNTDIAEELELPPVKIHCSILAEDAIKAAIADYKSKREAK
Turning to B1, the binding result in data set [1] is “binds”.

B2: Escherichia coli IscS (native cysteine desulfurase) (enzyme, E. coli)
chain: T1 sequence with Q10S, P247H, L248Q
For B2, in data set [2], the “cysteine desulfurase activity under standard conditions (kcat)” value (shortened to “cysteine desulfurase activity”) worked out at 8.2 min⁻¹.

B3: IscS S10Q variant (enzyme, E. coli)
chain: T1 sequence with P247H, L248Q
In general, Kd refers to the equilibrium constant for the complex coming apart. By stoichiometry N is commonly meant the number of molecules, sites or subunits per partner or assembly. As to B3, the “cysteine desulfurase activity” value in data set [2] was determined as 1.9 min⁻¹. The molecule also returned a Kd in data set [3] of 1000 nM. Besides, the “stoichiometry N” value in the data set “SEC” is 2.

B4: IscS H247P Q248L variant (enzyme, E. coli)
chain: T1 sequence with Q10S
On to B4, for which, in data set [2], the “cysteine desulfurase activity” value came to 4.1 min⁻¹. Further, binding in data set [3] was put at a Kd of 1400 nM. Further, the “stoichiometry N” value in “SEC” was 2.
